Results from the supplement of paper PMC10126150.
Sequences with one replicate were seen in a single cluster, so their values are uncertain.

Tested on: ATP
Assay: switch fluorescence ratio, 500 uM ATP over buffer (Cy3 cluster intensity, sum of 5 cycles each) (fold (ratio)); higher = stronger signal-on switching upon ATP binding; sequences stand for … in TCGTCGGCAGCGTCAGATGTGTATAAGAGACAGTTTTTTTTTTTTTTTTTTTTTTTTT…TC
Conditions: aptamer strand: ATP DNA aptamer (quencher-CACCTGGGGGAGTATTGCGGAGGAAGG + anchor), 100 nM annealed; ATP concentration: 500 uM; one replicate
In short: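 Switching-strand clusters labelled with Cy3 on a modified Illumina MiSeq flow-cell were annealed to 100 nM quencher-labelled ATP aptamer, imaged in selection buffer, and re-imaged after 15 min with 500 uM ATP at 22 °C. This was done over five cycles with NaOH stripping and re-annealing in between. The fluorescence ratio is summed target-cycle over summed buffer-cycle Cy3 intensity per cluster, averaged per switch-domain sequence, excluding clusters outside 100-1000 RFU.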
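Note: ATP exposure 15 min at 22 °C before imaging.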

Sequence: TCAGGGAAAG
- switch fluorescence ratio: 0.972

Sequence: GGGTTTGG
- switch fluorescence ratio: 0.973

Sequence: GATTCGTGTT
- switch fluorescence ratio: 0.972

Sequence: CGCTGGCAAA
- switch fluorescence ratio: 1.15

Sequence: GGTTTACCAG
- switch fluorescence ratio: 0.999

Sequence: TATAGAGTT
- switch fluorescence ratio: 0.969

Sequence: TCGTGTCGTA
- switch fluorescence ratio: 0.972

Sequence: GACTGCAGAT
- switch fluorescence ratio: 1.11

Sequence: CAAAATTCTG
- switch fluorescence ratio: 1.03

Sequence: CGCAGCAGCT
- switch fluorescence ratio: 2.11

Sequence: GTCGGGTTAC
- switch fluorescence ratio: 1.03

Sequence: AAAGAGGAGC
- switch fluorescence ratio: 0.996

Sequence: ATTAGATTAA
- switch fluorescence ratio: 0.994

Sequence: CCTCAAACCG
- switch fluorescence ratio: 1.24

Sequence: CGGACGGCGT
- switch fluorescence ratio: 0.948

Sequence: ACGCATTGTG
- switch fluorescence ratio: 1.02

Sequence: TCTGCGGTTA
- switch fluorescence ratio: 1.04

Sequence: GATACTGGTT
- switch fluorescence ratio: 1.02

Sequence: GAGTTGGCGT
- switch fluorescence ratio: 0.98

Sequence: AGTGAGCCAC
- switch fluorescence ratio: 1.05

Sequence: CTATGGGAC
- switch fluorescence ratio: 1.03

Sequence: CGCTAAATT
- switch fluorescence ratio: 1.07

Sequence: TAAGCTTAGG
- switch fluorescence ratio: 1.11

Sequence: TATGCTTTGT
- switch fluorescence ratio: 1.06

Sequence: GCTGAAAGTA
- switch fluorescence ratio: 0.999

Sequence: CACGTCGAGG
- switch fluorescence ratio: 0.984

Sequence: TGATGTGCTC
- switch fluorescence ratio: 1.01

Sequence: CCAGTGGTGC
- switch fluorescence ratio: 1.2

Sequence: GTGTTATGAC
- switch fluorescence ratio: 1.05

Sequence: ATAGAGCCCA
- switch fluorescence ratio: 0.977

Sequence: TGGTGGCCC
- switch fluorescence ratio: 0.987

Sequence: GGGATACCTC
- switch fluorescence ratio: 0.973

Sequence: TTAGTTGGCC
- switch fluorescence ratio: 1.01

Sequence: ATTGCCGGGC
- switch fluorescence ratio: 1

Sequence: TTGGAGATCT
- switch fluorescence ratio: 0.978

Sequence: CATGGCTGGG
- switch fluorescence ratio: 1

Sequence: TGTTTGATTG
- switch fluorescence ratio: 0.979

Sequence: GATAGTTCTA
- switch fluorescence ratio: 0.978

Sequence: GCTCCTATTA
- switch fluorescence ratio: 1.06

Sequence: GACACTAATG
- switch fluorescence ratio: 0.99

Sequence: TCCACTAGTC
- switch fluorescence ratio: 1.08

Sequence: TTCGGCTGGC
- switch fluorescence ratio: 0.957

Sequence: TTCATAGTGG
- switch fluorescence ratio: 0.991

Sequence: AGGATCACGA
- switch fluorescence ratio: 0.973

Sequence: TTTAGCACGG
- switch fluorescence ratio: 0.96

Sequence: TATAACTGTT
- switch fluorescence ratio: 1.13

Sequence: GAATTGAGGA
- switch fluorescence ratio: 1.04

Sequence: TTACTACGCG
- switch fluorescence ratio: 1.04

Sequence: GGAACTTATT
- switch fluorescence ratio: 1

Sequence: TGAAGCCATG
- switch fluorescence ratio: 0.934

Sequence: CCGGTACCCG
- switch fluorescence ratio: 1.06

Sequence: CCCGATTACA
- switch fluorescence ratio: 0.999

Sequence: TATTTTTTC
- switch fluorescence ratio: 0.988

Sequence: TTTGCACCAA
- switch fluorescence ratio: 1.02

Sequence: TTTAACATCG
- switch fluorescence ratio: 1.03

Sequence: TGTGAGGTAC
- switch fluorescence ratio: 1

Sequence: TCGAATCAAG
- switch fluorescence ratio: 0.973

Sequence: AACAGGGGAC
- switch fluorescence ratio: 1.4

Sequence: CCCGTGTCTC
- switch fluorescence ratio: 1.09

Sequence: TGGTATTTG
- switch fluorescence ratio: 1.03

Sequence: AAAGGTGTGG
- switch fluorescence ratio: 0.991

Sequence: GCCGATTGAA
- switch fluorescence ratio: 0.993

Sequence: AATTGTAACA
- switch fluorescence ratio: 1.04

Sequence: GTTTAGAAGT
- switch fluorescence ratio: 0.98

Sequence: ATGGTAGACT
- switch fluorescence ratio: 0.988

Sequence: TGCGAGGTA
- switch fluorescence ratio: 1.05

Sequence: ACAGAAGGCG
- switch fluorescence ratio: 1.04

Sequence: AATTTAGCCT
- switch fluorescence ratio: 1.12

Sequence: CAAACCATCA
- switch fluorescence ratio: 1.11

Sequence: GCTGTCGATG
- switch fluorescence ratio: 1.03

Sequence: CTTCGGATGG
- switch fluorescence ratio: 0.983

Sequence: TATTGGTCCG
- switch fluorescence ratio: 1.05

Sequence: TATCTTTAGA
- switch fluorescence ratio: 1.04

Sequence: CGTCATAAGT
- switch fluorescence ratio: 1

Sequence: CAATTTAAC
- switch fluorescence ratio: 1.01

Sequence: CTGGCCGAA
- switch fluorescence ratio: 1.01

Sequence: CCAGTTGCCC
- switch fluorescence ratio: 1.07

Sequence: GACTCGCATT
- switch fluorescence ratio: 3.31

Sequence: AAGTTTCCTA
- switch fluorescence ratio: 0.997

Sequence: TACGGTCTTG
- switch fluorescence ratio: 1.02

Sequence: CCGAATGAGT
- switch fluorescence ratio: 1.02

Sequence: GTCGAAAATG
- switch fluorescence ratio: 1.05

Sequence: CAGAGTCTC
- switch fluorescence ratio: 1.24

Sequence: TGTATTTATA
- switch fluorescence ratio: 1.02

Sequence: AGGGGCTCGG
- switch fluorescence ratio: 0.999

Sequence: ATGGTATACA
- switch fluorescence ratio: 1

Sequence: AAATATGCGA
- switch fluorescence ratio: 1.04

Sequence: TTGTTAGGT
- switch fluorescence ratio: 1.21

Sequence: CGTGCAGTAA
- switch fluorescence ratio: 1.4

Sequence: GATCTAGCTA
- switch fluorescence ratio: 1.02

Sequence: TATATCGACG
- switch fluorescence ratio: 1.01

Sequence: CTACCCGAGC
- switch fluorescence ratio: 1.15

Sequence: GTCGACTACG
- switch fluorescence ratio: 0.972

Sequence: CGGATGAACC
- switch fluorescence ratio: 1.03

Sequence: TCCCCGACTG
- switch fluorescence ratio: 1.1

Sequence: TTGGAAACG
- switch fluorescence ratio: 1.02

Sequence: CACAAAGTTG
- switch fluorescence ratio: 0.973

Sequence: TAAAAGCGT
- switch fluorescence ratio: 0.999

Sequence: CTTTAATGTG
- switch fluorescence ratio: 0.99

Sequence: CTGCGCCACG
- switch fluorescence ratio: 1.13

Sequence: CCTTAGACTT
- switch fluorescence ratio: 1.04

Sequence: TAACTCCCTT
- switch fluorescence ratio: 1.57

Sequence: GTGGCGATGT
- switch fluorescence ratio: 0.972

Sequence: ACGCGCCTGC
- switch fluorescence ratio: 1.11

Sequence: TTCCAAGTAG
- switch fluorescence ratio: 1.06

Sequence: AGGCGGCATA
- switch fluorescence ratio: 0.997

Sequence: TGCAGTGAAA
- switch fluorescence ratio: 0.966

Sequence: AAGCTCTGGC
- switch fluorescence ratio: 1.07

Sequence: GGCCCTTATG
- switch fluorescence ratio: 0.992

Sequence: ATGTTTGTGA
- switch fluorescence ratio: 1.01

Sequence: GCCTGGGAAC
- switch fluorescence ratio: 0.979

Sequence: TTATAGCAGA
- switch fluorescence ratio: 0.988

Sequence: GACTCGGCTT
- switch fluorescence ratio: 0.981

Sequence: AAATAAAGGA
- switch fluorescence ratio: 1.01

Sequence: TTCGCTTAT
- switch fluorescence ratio: 1.11

Sequence: ACTTACTGCT
- switch fluorescence ratio: 1.13

Sequence: CGGCCTAAGT
- switch fluorescence ratio: 1.02

Sequence: ATTCGAAGA
- switch fluorescence ratio: 0.978

Sequence: TGTTCATTTT
- switch fluorescence ratio: 0.996

Sequence: AGTGGTCAGG
- switch fluorescence ratio: 0.989

Sequence: GTAGTACTT
- switch fluorescence ratio: 1.03

Sequence: ATGATCACCA
- switch fluorescence ratio: 1.03

Sequence: ATTCAGATCC
- switch fluorescence ratio: 0.984

Sequence: ATGACTGTAC
- switch fluorescence ratio: 1.77

Sequence: CAGGGTCCAG
- switch fluorescence ratio: 0.971

Sequence: TCAGGGCTTA
- switch fluorescence ratio: 0.998

Sequence: ATAAACTCTG
- switch fluorescence ratio: 1.05

Sequence: CTCTATACGC
- switch fluorescence ratio: 1.07

Sequence: TAGTCATCAC
- switch fluorescence ratio: 1.03

Sequence: TACTTGTGGA
- switch fluorescence ratio: 1.01

Sequence: GAATGATATT
- switch fluorescence ratio: 0.994

Sequence: TATACATGTT
- switch fluorescence ratio: 0.993

Sequence: AAACCTAAGT
- switch fluorescence ratio: 1.02

Sequence: CGATGAGACG
- switch fluorescence ratio: 1.04

Sequence: TACGGCTGTC
- switch fluorescence ratio: 1.09

Sequence: TGGCGCCTGC
- switch fluorescence ratio: 0.974

Sequence: AGTAACGGCC
- switch fluorescence ratio: 1

Sequence: TCAGCATCTT
- switch fluorescence ratio: 0.948

Sequence: TATCAGAGTC
- switch fluorescence ratio: 1.01

Sequence: AAAAGAGGAG
- switch fluorescence ratio: 1.07

Sequence: CATAATGTGC
- switch fluorescence ratio: 0.982

Sequence: GCAGAAAACT
- switch fluorescence ratio: 1.33

Sequence: TTCCCTGCTC
- switch fluorescence ratio: 1.37

Sequence: CTGTGCAGGT
- switch fluorescence ratio: 1.04

Sequence: ACCCTTTGAC
- switch fluorescence ratio: 1.06

Sequence: TATCTTATCG
- switch fluorescence ratio: 1

Sequence: GGGCGCGTTG
- switch fluorescence ratio: 1

Sequence: GGTTGTTAGT
- switch fluorescence ratio: 1

Sequence: GTGGAGAATA
- switch fluorescence ratio: 0.974

Sequence: TCATGTAGA
- switch fluorescence ratio: 1.02

Sequence: CGCCAGCTTG
- switch fluorescence ratio: 0.981

Sequence: GGTGGTGTGC
- switch fluorescence ratio: 0.984

Sequence: TCCCAAAAAC
- switch fluorescence ratio: 1.14

Sequence: TACGGCCTAC
- switch fluorescence ratio: 1.24

Sequence: TAGCAGATGT
- switch fluorescence ratio: 1.01

Sequence: CAACAATTG
- switch fluorescence ratio: 0.972

Sequence: CACGTTCGCT
- switch fluorescence ratio: 1.09
